# Data reported in the supplement of paper PMC8728848.
# Some of the results follow.
# B1: PX9961C-bth-497-22-497 (Bacteroides thetaiotaomicron) (protein)
# chain: DWLDLNTTSSVETGQAIVTLDDAQIALNGIYRLASGHSYYGDNYWYYGDCRAADVQARITKGDGKRVSPYYEYNVLASDNLNIVLPWNTVYKVIRQTNNLIQKIESGSIQSSDTKELNRIKSEALVMRGLSLFNLTRLFGMPYTNDKGASLGVPIETSPSDPTHKPSRSTVAQCYEQVVSDMSNALSGLRQETSNGYINYWAAQALLSRVYLNMGEYQKAYDAATDVIKNNGGRYQLYSYEEYPNVWGQDFQSESLFELYITLSEPSGGTGGEGAPMVYANEATVDWNNLILSEDFLNLLNEDPKDVRHCLTKESVIENNTGLPAAAMHEKVYLAKFPGKTGDDPKTNNICIIRLSEVYLNAAEAGLKKGTDIEEAQGYLNDIISRRTTDTSQQVSTETFTLDRILKERRKELVGEGEVFYDYLRNGLAIERKGSWHLETLKASNAQKIEATDLRIALPIPQSEIDANPNIQQNPR
# Columns and labels:
# Assay in all cases: glycan array binding signal (z-score within array); higher = stronger binding
# Settings in all cases: glycan notation: IUPAC condensed, linker removed
# [1] = biological target: Fuc(a1-2)Gal(b1-4)[Fuc(a1-3)]GlcNAc(b1-2)Man(a1-3)[Fuc(a1-2)Gal(b1-4)[Fuc(a1-3)]GlcNAc(b1-2)Man(a1-6)]Man(b1-4)GlcNAc(b1-4)[Fuc(a1-6)]GlcNAc
# Outline: (§1)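 The binding signal is a Z-score computed within each array. Data were drawn from 3228 arrays in the Consortium for Functional Glycomics database, restricted to those with a known protein sequence. Scores were averaged over arrays of the same protein sequence at different concentrations or buffers, and over linkers, and negative values can be taken as non-binding.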
# [2] = biological target: Fuc(a1-2)Gal(b1-4)[Fuc(a1-3)]GlcNAc(b1-2)[Fuc(a1-2)Gal(b1-4)[Fuc(a1-3)]GlcNAc(b1-4)]Man(a1-3)[Fuc(a1-2)Gal(b1-4)[Fuc(a1-3)]GlcNAc(b1-2)Man(a1-6)]Man(b1-4)GlcNAc(b1-4)GlcNAc
# Outline: as §1
# [3] = biological target: Fuc(a1-2)Gal(b1-4)[Fuc(a1-3)]GlcNAc(b1-3)Gal(b1-4)[Fuc(a1-3)]GlcNAc
# Outline: as §1
# [4] = biological target: Fuc(a1-2)Gal(b1-4)[Fuc(a1-3)]GlcNAc(b1-3)Gal(b1-4)[Fuc(a1-3)]GlcNAc(b1-3)Gal(b1-4)[Fuc(a1-3)]GlcNAc
# Outline: as §1
# [5] = biological target: Fuc(a1-2)Gal(b1-4)[Fuc(a1-3)]GlcNAc(b1-3)GalNAc
# Outline: as §1
# [6] = biological target: Fuc(a1-2)Gal(b1-4)[Fuc(a1-3)]GlcNAc(b1-3)[Neu5Ac(a2-6)Gal(b1-4)GlcNAc(b1-6)]Gal(b1-4)Glc
# Outline: as §1
# [7] = biological target: Fuc(a1-2)Gal3S(b1-4)GlcNAc
# Outline: as §1
# [8] = biological target: Fuc(a1-2)Gal6S(b1-3)GlcNAc
# Outline: as §1
# [9] = biological target: Fuc(a1-2)Gal6S(b1-3)GlcNAc6S
# Outline: as §1
# [10] = biological target: Fuc(a1-2)Gal6S(b1-4)Glc
# Outline: as §1
# [11] = biological target: Fuc(a1-2)Gal6S(b1-4)Glc6S
# Outline: as §1
# [12] = biological target: Fuc(a1-2)[Gal(a1-3)]Gal
# Outline: as §1
# [13] = biological target: Fuc(a1-2)[Gal(a1-3)]Gal(b1-3)GalNAc
# Outline: as §1
# [14] = biological target: Fuc(a1-2)[Gal(a1-3)]Gal(b1-3)GalNAc(b1-3)Gal(a1-4)Gal(b1-4)Glc
# Outline: as §1
# [15] = biological target: Fuc(a1-2)[Gal(a1-3)]Gal(b1-3)GlcNAc
# Outline: as §1
# [16] = biological target: Fuc(a1-2)[Gal(a1-3)]Gal(b1-3)GlcNAc(b1-2)Man(a1-3)[Fuc(a1-2)[Gal(a1-3)]Gal(b1-3)GlcNAc(b1-2)Man(a1-6)]Man(b1-4)GlcNAc(b1-4)GlcNAc
# Outline: as §1
# [17] = biological target: Fuc(a1-2)[Gal(a1-3)]Gal(b1-3)GlcNAc(b1-2)Man(a1-3)[Fuc(a1-2)[Gal(a1-3)]Gal(b1-3)GlcNAc(b1-2)Man(a1-6)]Man(b1-4)GlcNAc(b1-4)[Fuc(a1-6)]GlcNAc
# Outline: as §1
# [18] = biological target: Fuc(a1-2)[Gal(a1-3)]Gal(b1-3)GlcNAc(b1-3)GalNAc
# Outline: as §1
# [19] = biological target: Fuc(a1-2)[Gal(a1-3)]Gal(b1-3)GlcNAc(b1-6)GalNAc
# Outline: as §1
# [20] = biological target: Fuc(a1-2)[Gal(a1-3)]Gal(b1-4)Glc
# Outline: as §1
# [21] = biological target: Fuc(a1-2)[Gal(a1-3)]Gal(b1-4)GlcNAc
# Outline: as §1
# [22] = biological target: Fuc(a1-2)[Gal(a1-3)]Gal(b1-4)GlcNAc(b1-2)Man
# Outline: as §1
# [23] = biological target: Fuc(a1-2)[Gal(a1-3)]Gal(b1-4)GlcNAc(b1-2)Man(a1-3)[Fuc(a1-2)[Gal(a1-3)]Gal(b1-4)GlcNAc(b1-2)Man(a1-6)]Man(b1-4)GlcNAc(b1-4)GlcNAc
# Outline: as §1
# [24] = biological target: Fuc(a1-2)[Gal(a1-3)]Gal(b1-4)GlcNAc(b1-2)Man(a1-3)[Fuc(a1-2)[Gal(a1-3)]Gal(b1-4)GlcNAc(b1-2)Man(a1-6)]Man(b1-4)GlcNAc(b1-4)[Fuc(a1-6)]GlcNAc
# Outline: as §1
# [25] = biological target: Fuc(a1-2)[Gal(a1-3)]Gal(b1-4)GlcNAc(b1-3)GalNAc
# Outline: as §1
# [26] = biological target: Fuc(a1-2)[Gal(a1-3)]Gal(b1-4)GlcNAc(b1-3)[Fuc(a1-2)[Gal(a1-3)]Gal(b1-4)GlcNAc(b1-6)]GalNAc
# Outline: as §1
# [27] = biological target: Fuc(a1-2)[Gal(a1-3)]Gal(b1-4)GlcNAc(b1-6)GalNAc
# Outline: as §1
# [28] = biological target: Fuc(a1-2)[Gal(a1-3)]Gal(b1-4)[Fuc(a1-3)]Glc
# Outline: as §1
# [29] = biological target: Fuc(a1-2)[Gal(a1-3)]Gal(b1-4)[Fuc(a1-3)]GlcNAc
# Outline: as §1
# [30] = biological target: Fuc(a1-2)[Gal(a1-3)]Gal(b1-4)[Fuc(a1-3)]GlcNAc(b1-3)GalNAc
# Outline: as §1
# [31] = biological target: Fuc(a1-2)[Gal(a1-4)]Gal(b1-4)GlcNAc
# Outline: as §1
# [32] = biological target: Fuc(a1-2)[GalNAc(a1-3)]Gal
# Outline: as §1
# [33] = biological target: Fuc(a1-2)[GalNAc(a1-3)]Gal(b1-3)GalNAc(a1-3)[Fuc(a1-2)]Gal(b1-4)GlcNAc
# Outline: as §1
# [34] = biological target: Fuc(a1-2)[GalNAc(a1-3)]Gal(b1-3)GalNAc(b1-3)Gal(a1-4)Gal(b1-4)Glc
# Outline: as §1
# [35] = biological target: Fuc(a1-2)[GalNAc(a1-3)]Gal(b1-3)GlcNAc
# Outline: as §1
# [36] = biological target: Fuc(a1-2)[GalNAc(a1-3)]Gal(b1-3)GlcNAc(b1-2)Man(a1-3)[Fuc(a1-2)[GalNAc(a1-3)]Gal(b1-3)GlcNAc(b1-2)Man(a1-6)]Man(b1-4)GlcNAc(b1-4)GlcNAc
# Outline: as §1
# [37] = biological target: Fuc(a1-2)[GalNAc(a1-3)]Gal(b1-3)GlcNAc(b1-2)Man(a1-3)[Fuc(a1-2)[GalNAc(a1-3)]Gal(b1-3)GlcNAc(b1-2)Man(a1-6)]Man(b1-4)GlcNAc(b1-4)[Fuc(a1-6)]GlcNAc
# Outline: as §1
# [38] = biological target: Fuc(a1-2)[GalNAc(a1-3)]Gal(b1-3)GlcNAc(b1-3)GalNAc
# Outline: as §1
binder,measurement,setting,value
B1,glycan array binding signal (z-score),[1],1.06
same,glycan array binding signal (z-score),[2],0.886
same,glycan array binding signal (z-score),[3],0.719
same,glycan array binding signal (z-score),[4],-0.517
same,glycan array binding signal (z-score),[5],-0.049
same,glycan array binding signal (z-score),[6],-0.648
same,glycan array binding signal (z-score),[7],0.274
same,glycan array binding signal (z-score),[8],-0.49
same,glycan array binding signal (z-score),[9],0.538
same,glycan array binding signal (z-score),[10],-0.078
same,glycan array binding signal (z-score),[11],0.28
same,glycan array binding signal (z-score),[12],-0.571
same,glycan array binding signal (z-score),[13],-0.3
same,glycan array binding signal (z-score),[14],0.019
same,glycan array binding signal (z-score),[15],0.007
same,glycan array binding signal (z-score),[16],1.08
same,glycan array binding signal (z-score),[17],-0.408
same,glycan array binding signal (z-score),[18],-0.02
same,glycan array binding signal (z-score),[19],0.553
same,glycan array binding signal (z-score),[20],-0.317
same,glycan array binding signal (z-score),[21],-0.287
same,glycan array binding signal (z-score),[22],-0.333
same,glycan array binding signal (z-score),[23],0.26
same,glycan array binding signal (z-score),[24],-0.096
same,glycan array binding signal (z-score),[25],-0.704
same,glycan array binding signal (z-score),[26],-0.459
same,glycan array binding signal (z-score),[27],0.219
same,glycan array binding signal (z-score),[28],0.035
same,glycan array binding signal (z-score),[29],-0.229
same,glycan array binding signal (z-score),[30],-0.284
same,glycan array binding signal (z-score),[31],-0.405
same,glycan array binding signal (z-score),[32],-0.11
same,glycan array binding signal (z-score),[33],-0.244
same,glycan array binding signal (z-score),[34],-0.32
same,glycan array binding signal (z-score),[35],-0.776
same,glycan array binding signal (z-score),[36],-0.251
same,glycan array binding signal (z-score),[37],-0.189
same,glycan array binding signal (z-score),[38],-0.541
